Test results published in the supplement of paper PMC8728848.
The other results are listed elsewhere or left out.

Experiments:
Assay in all cases: glycan array binding signal (z-score within array); higher = stronger binding
Details in all cases: glycan notation: IUPAC condensed, linker removed
[1] = target: Fuc(a1-3)[Gal3S(b1-4)]GlcNAc
Outline: (§1)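 Columns mapping to the same glycan were averaged after glycan names were converted to IUPAC-condensed notation. The data come from 3228 arrays in the Consortium for Functional Glycomics database, limited to those with an available protein sequence. Binding is reported as a within-array Z-score averaged across arrays of one protein sequence and across linkers.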

[2] = target: Fuc(a1-3)[Gal3S(b1-4)]GlcNAc6S
Outline: as §1

[3] = target: Fuc(a1-3)[GalNAc(b1-4)]GlcNAc
Outline: as §1

[4] = target: Fuc(a1-3)[GalNAc(b1-4)]GlcNAc6S
Outline: as §1

[5] = target: Fuc(a1-4)GlcNAc
Outline: as §1

[6] = target: Fuc(b1-3)GlcNAc
Outline: as §1

[7] = target: Gal(a1-2)Gal
Outline: as §1

[8] = target: Gal(a1-3)Gal
Outline: as §1

[9] = target: Gal(a1-3)Gal(b1-3)GlcNAc
Outline: as §1

[10] = target: Gal(a1-3)Gal(b1-3)GlcNAc(b1-2)Man
Outline: as §1

[11] = target: Gal(a1-3)Gal(b1-3)GlcNAc(b1-2)Man(a1-3)[Gal(a1-3)Gal(b1-3)GlcNAc(b1-2)Man(a1-6)]Man(b1-4)GlcNAc(b1-4)GlcNAc
Outline: as §1

[12] = target: Gal(a1-3)Gal(b1-3)GlcNAc(b1-3)GalNAc
Outline: as §1

[13] = target: Gal(a1-3)Gal(b1-3)GlcNAc(b1-6)GalNAc
Outline: as §1

[14] = target: Gal(a1-3)Gal(b1-3)[Fuc(a1-4)]GlcNAc(b1-2)Man(a1-3)[Gal(a1-3)Gal(b1-3)[Fuc(a1-4)]GlcNAc(b1-2)Man(a1-6)]Man(b1-4)GlcNAc(b1-4)GlcNAc
Outline: as §1

[15] = target: Gal(a1-3)Gal(b1-4)Glc
Outline: as §1

[16] = target: Gal(a1-3)Gal(b1-4)GlcNAc
Outline: as §1

[17] = target: Gal(a1-3)Gal(b1-4)GlcNAc(b1-2)Man
Outline: as §1

[18] = target: Gal(a1-3)Gal(b1-4)GlcNAc(b1-2)Man(a1-3)[Gal(a1-3)Gal(b1-4)GlcNAc(b1-2)Man(a1-6)]Man(b1-4)GlcNAc(b1-4)GlcNAc
Outline: as §1

[19] = target: Gal(a1-3)Gal(b1-4)GlcNAc(b1-3)GalNAc
Outline: as §1

[20] = target: Gal(a1-3)Gal(b1-4)GlcNAc(b1-6)GalNAc
Outline: as §1

[21] = target: Gal(a1-3)Gal(b1-4)[Fuc(a1-3)]GlcNAc
Outline: as §1

[22] = target: Gal(a1-3)Gal(b1-4)[Fuc(a1-3)]GlcNAc(b1-2)Man(a1-3)[Gal(a1-3)Gal(b1-4)[Fuc(a1-3)]GlcNAc(b1-2)Man(a1-6)]Man(b1-4)GlcNAc(b1-4)GlcNAc
Outline: as §1

[23] = target: Gal(a1-3)GalNAc
Outline: as §1

[24] = target: Gal(a1-3)[Gal(a1-4)]Gal(b1-4)GlcNAc
Outline: as §1

[25] = target: Gal(a1-4)Gal(b1-3)GlcNAc(b1-2)Man(a1-3)[Gal(a1-4)Gal(b1-3)GlcNAc(b1-2)Man(a1-6)]Man(b1-4)GlcNAc(b1-4)GlcNAc
Outline: as §1

[26] = target: Gal(a1-4)Gal(b1-4)Glc
Outline: as §1

[27] = target: Gal(a1-4)Gal(b1-4)GlcNAc
Outline: as §1

[28] = target: Gal(a1-4)Gal(b1-4)GlcNAc(b1-2)Man(a1-3)[Gal(a1-4)Gal(b1-4)GlcNAc(b1-2)Man(a1-6)]Man(b1-4)GlcNAc(b1-4)GlcNAc
Outline: as §1

[29] = target: Gal(a1-4)Gal(b1-4)GlcNAc(b1-3)Gal(b1-4)Glc
Outline: as §1

[30] = target: Gal(a1-4)GlcNAc
Outline: as §1

[31] = target: Gal(a1-6)Glc
Outline: as §1

[32] = target: Gal(b1-2)Gal
Outline: as §1

[33] = target: Gal(b1-3)Gal
Outline: as §1

[34] = target: Gal(b1-3)Gal(b1-4)GlcNAc
Outline: as §1

[35] = target: Gal(b1-3)GalNAc
Outline: as §1

[36] = target: Gal(b1-3)GalNAc(a1-3)[Fuc(a1-2)]Gal(b1-4)Glc
Outline: as §1

[37] = target: Gal(b1-3)GalNAc(a1-3)[Fuc(a1-2)]Gal(b1-4)GlcNAc
Outline: as §1

B1: AT1G15820(2) (Arabidopsis thaliana), Q9LMQ2 (protein)
chain: MAMAVSGAVLSGLGSSFLTGGKRGATALASGVGTGAQRVGRKTLIVAAAAAQPKKSWIPAVKGGGNFLDPEWLDGSLPGDFGFDPLGLGKDPAFLKWYREAELIHGRWAMAAVLGIFVGQAWSGVAWFEAGAQPDAIAPFSFGSLLGTQLLLMGWVESKRWVDFFNPDSQSVEWATPWSKTAENFANYTGDQGYPGGRFFDPLGLAGKNRDGVYEPDFEKLERLKLAEIKHSRLAMVAMLIFYFEAGQGKTPLGALGL
glycan array binding signal (z-score) [1]: -0.47 | glycan array binding signal (z-score) [2]: -0.271 | glycan array binding signal (z-score) [3]: 1.79 | glycan array binding signal (z-score) [4]: -0.326 | glycan array binding signal (z-score) [5]: -0.407 | glycan array binding signal (z-score) [6]: -0.152 | glycan array binding signal (z-score) [7]: -0.348 | glycan array binding signal (z-score) [8]: 0.079 | glycan array binding signal (z-score) [9]: -0.492 | glycan array binding signal (z-score) [10]: -0.359 | glycan array binding signal (z-score) [11]: -0.093 | glycan array binding signal (z-score) [12]: -0.587 | glycan array binding signal (z-score) [13]: -0.482 | glycan array binding signal (z-score) [14]: -0.233 | glycan array binding signal (z-score) [15]: -0.501 | glycan array binding signal (z-score) [16]: -0.28 | glycan array binding signal (z-score) [17]: -0.301 | glycan array binding signal (z-score) [18]: -0.162 | glycan array binding signal (z-score) [19]: -0.257 | glycan array binding signal (z-score) [20]: -0.383 | glycan array binding signal (z-score) [21]: -0.435 | glycan array binding signal (z-score) [22]: -0.502 | glycan array binding signal (z-score) [23]: 3.12 | glycan array binding signal (z-score) [24]: 9.8 | glycan array binding signal (z-score) [25]: 0.677 | glycan array binding signal (z-score) [26]: 2.16 | glycan array binding signal (z-score) [27]: 1.09 | glycan array binding signal (z-score) [28]: -0.114 | glycan array binding signal (z-score) [29]: -0.532 | glycan array binding signal (z-score) [30]: -0.399 | glycan array binding signal (z-score) [31]: 0.096 | glycan array binding signal (z-score) [32]: 0.453 | glycan array binding signal (z-score) [33]: -0.507 | glycan array binding signal (z-score) [34]: -0.298 | glycan array binding signal (z-score) [35]: 0.218 | glycan array binding signal (z-score) [36]: -0.146 | glycan array binding signal (z-score) [37]: 0.067
